Assay results: PubChem BioAssay AID686978 (National Center for Advancing Translational Sciences (NCATS), 2013)
Hit rate of the full screen: of about 420,000 compounds, about 64,000 (15%) were called active. Inconclusive means that the source gave no clear call. Such entries were picked first, then a sample of the others. The call rests on the fitted dose curve; in most records, active means well fitted inhibition curve with a large enough effect; inconclusive means small, poorly fitted or top-dose-only effect; inactive means flat fitted curve, though single readings scatter. Potencies of inconclusive entries are left out as doubtful fits.

Assay: qHTS for Inhibitors of human tyrosyl-DNA phosphodiesterase 1 (TDP1): qHTS in cells in absence of CPT; further: nearly all actives have a fitted effect of over 55% in size
Conditions: DT40 Tdp1-/- hTDP1 cells, no CPT, ATP luminescence, 48 h; series mostly up to 46.2 µM
How it was run: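 Growth of hTDP1-complemented DT40 Tdp1-knockout cells is measured by ATP luminescence after at least 48 hr compound exposure at 37 °C, with DMSO substituting for the 20 nM CPT used in the parallel screen.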
Potency means the concentration at half of the fitted maximal effect; tags describe the fitted curve by direction and shape.

Row | SMILES | Potency
1 | NS(=O)(=O)c1ccc(NC(=O)/C=C/c2cn(-c3ccccc3)nc2-c2cccc(Cl)c2)cc1 | active: 29.1 µM
2 | Cc1cc(C(=O)N2CCC2(C)C(=O)Nc2cc(C(C)(C)C)nn2C)nn1C (stereo not given) | inactive
3 | C=C(Cl)COc1ccc2c(C)cc(=O)oc2c1 | inconclusive [inhibitor, single point]
4 | O=C(c1cccc2ccccc12)N1CCN(S(=O)(=O)c2ccccc2)CC1 | inactive
5 | CCOc1ccc(S(=O)(=O)N2CCN(C)CC2)cc1NC(=O)c1ccccc1F | inconclusive [inhibitor, partial curve, poor fit]
6 | CC(NC(=O)CCc1nnc(CCCc2ccccc2)o1)c1ccccc1 (stereo not given) | inactive
7 | CCOC(=O)C1(Cc2ccccc2C(F)(F)F)CCN(C2CCSC2)CC1 (stereo not given) | inconclusive [inhibitor, single point]
8 | CC(NC(=S)Nc1ccc([N+](=O)[O-])cc1)c1ccncc1 (stereo not given) | inconclusive [inhibitor, single point]
9 | S=C(NCc1ccc(Cl)cc1)NC1CCN(Cc2ccccc2)CC1 | active: 16.4 µM
10 | CCCCCC(=O)Nc1nc(C)c(-c2csc(Nc3ccccc3OCC)n2)s1 | inconclusive [inhibitor, single point]
11 | CCN(CC)C(=O)CSc1nnc(-c2cc(-c3ccc(Cl)cc3)nc3ccccc23)o1 | inconclusive [inhibitor, single point]
12 | CC(=O)c1ccc(NC(=O)NC2CCCCCCC2)cc1 | inactive
13 | CC#CC(=O)N1CCC(C(=O)Nc2ccc(Oc3ccccc3)nc2)CC1 | inconclusive [inhibitor, single point]
14 | COc1ccc(C(=O)N2CCN(c3ccc(C(C)=O)cc3F)CC2)cc1S(=O)(=O)NC1CC1 | inconclusive [inhibitor, single point]
15 | CC(CN1CCOCC1)OC(=O)c1ccc(C(C)(C)C)cc1 (stereo not given) | inconclusive [inhibitor, single point]
16 | O=C(c1cc2cc(C(F)(F)F)ccc2s1)N1CCOCC1 | inactive
17 | CC(=O)N1CCc2c(sc3c2c(=O)n(CCc2ccccc2)c(=O)n3Cc2ccc(F)cc2)C1 | active: 8.2 µM
18 | COc1cc(NC(=NS(=O)(=O)c2ccccc2)c2ccccc2)ncn1 | inactive
19 | CCOC(=O)N1CCN(C(=O)CN(c2ccc(OC)c(OC)c2)S(C)(=O)=O)CC1 | inactive
20 | COC(=O)CSc1nnc(-c2ccoc2C)n1-c1ccc(C)cc1 | inactive
21 | Cc1ccc2nc3c(cc2c1)CN(Cc1ccco1)C(=NCC1CCCO1)S3 (stereo not given) | inconclusive [inhibitor, single point]
22 | COc1ccc2oc(=O)c(C(=O)OCc3ccccc3)cc2c1 | inactive
23 | Nc1ccc(C(=O)NN2C(=O)[C@H](Cl)C2c2ccc(Cl)cc2)cc1 (stereo not given in full) | active: 3.66 µM

Row | SMILES | Potency
24 | O=C1C2C3C=CC([C@@H]2C(=O)N1C1CCCCC1)[C@H]1C(=O)N(C2CCCCC2)C(=O)C31 (stereo not given in full) | inconclusive [inhibitor, partial curve]
25 | COc1ccc(CCNC(=O)C(=O)NCCC2CCCCN2S(=O)(=O)c2cccs2)cc1 (stereo not given) | inconclusive [inhibitor, single point]
26 | O=C(NCCNc1ccc([N+](=O)[O-])cc1)c1ccccc1Cl | inconclusive [inhibitor, single point]
27 | COc1ccc(OC)c(-n2c(SCC(=O)N3CCc4ccccc43)nc3c(c2=O)SCC3)c1 | inconclusive [inhibitor, partial curve, poor fit]
28 | COc1ccc(-n2ccn(CC(=O)Nc3ccccc3C(F)(F)F)c(=O)c2=O)cc1OC | inactive
29 | Cc1nc(CNC(=O)c2cc(COc3c(F)cccc3F)on2)cs1 | inconclusive [inhibitor, partial curve]
30 | O=C1c2ccccc2-c2nnc(-c3ccccc3)cc21 | active: 5.17 µM
31 | CCOC(=O)Cc1c(C)nc2c(-c3ccc(Cl)cc3)c[nH]n2c1=O | inconclusive [inhibitor, single point]
32 | COC(=O)c1cc2c(-c3ccccc3)cc3ccccn3c-2c1C(=O)OC | inconclusive [inhibitor, partial curve]
33 | Cc1ccccc1NC(=O)Cn1c(=O)n(CCCCCC(=O)NCc2ccc3c(c2)OCO3)c(=O)c2sccc21 | inconclusive [inhibitor, single point]
34 | COc1ccccc1C(=O)NCC(=O)N/N=C/c1cn[nH]c1-c1ccccc1 | inconclusive [inhibitor, partial curve]
35 | COCCNC(=O)c1c(N)n(/N=C/c2ccc(F)cc2)c2nc3ccccc3nc12 | inconclusive [inhibitor, full curve]
36 | COc1ccc(-c2cc(C(=O)N3CCN(S(=O)(=O)c4ccc(C)cc4)CC3)[nH]n2)cc1 | inconclusive [inhibitor, partial curve, poor fit]
37 | CCOC(=O)Cn1c(=O)oc2cc(S(=O)(=O)N(C)Cc3ccco3)ccc21 | inconclusive [inhibitor, single point]
38 | CCOc1ccc(NC(=O)c2sc3nc(-c4ccc(OC)cc4)cn3c2C)cc1 | active: 7.31 µM
39 | CCCOc1ccc(/C=N/Nc2ccc(C(=O)O)cc2)c(OCCC)c1 | inactive
40 | O=S(=O)(Nc1nc2ccccc2nc1Cl)c1ccccc1C(F)(F)F | inconclusive [inhibitor, single point]
41 | O=C(NCC(c1cccnc1)N1CCN(c2ccc(F)cc2)CC1)c1ccc(F)cc1 (stereo not given) | active: 16.4 µM
42 | O=C(/C=C/c1cccc([N+](=O)[O-])c1)n1cnc2ccccc21 | active: 2.59 µM
43 | OC(c1ccc(F)c(F)c1)c1ncc(-c2cccc(C(F)(F)F)c2)[nH]1 (stereo not given) | active: 16.4 µM
44 | COc1cccc(-c2nnc(NC(=O)CCS(=O)(=O)c3ccc(C)cc3)o2)c1 | inconclusive [inhibitor, single point]
45 | O=C(N/C(=C\c1cccs1)C(=O)N1CCOCC1)c1cccs1 | inconclusive [inhibitor, single point]
